Test results as given in PubChem BioAssay AID2100 (National Center for Advancing Translational Sciences (NCATS), 2009).
The whole screen tested about 300,000 compounds, of which about 1,200 (0.4%) were called active. The inconclusive results got no clear call from the source; some entries with a clear call stand among them for comparison. Calls follow the shape of the dose curve; as a rule, active = well fitted inhibition curve with a large enough effect; inconclusive = small, poorly fitted or top-dose-only effect, or another doubt; inactive = no such curve, though single readings can be large or run the other way. Potencies of inconclusive entries are doubtful fits and often do not repeat.

Biological target: Lysosomal alpha-glucosidase (Homo sapiens) (UniProt P10253)
Test: qHTS Assay for Inhibitors and Activators of Human alpha-Glucosidase Cleavage of Glycogen;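 as to activity change, negative = inhibition: 0% = full enzyme reaction and -100% = no-enzyme basal signal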
Conditions: recombinant GAA, glycogen substrate, Amplex Red glucose oxidase fluorescence; activity change, negative = inhibition: at 76.4 µM (top of the series) unless noted
Method in brief: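 Recombinant enzyme (4 nM final) with compounds titrated up to 77 uM and bovine liver glycogen (30 ug) in citrate pH 5.0, 0.01% Tween-20, 37 C 40 min. Released glucose detected by Amplex Red/glucose oxidase (Ex 573/Em 610); AC50 from Hill fits.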
Potency is read from the fitted curve at half-maximal effect.

| SMILES | activity change, negative = inhibition | Potency |
| --- | --- | --- |
| Cc1sc2ncnc(NCC(c3ccco3)N(C)C)c2c1C (stereo not given) | inconclusive: 34% [activator] |  |
| COC(=O)Cc1ccc(O)c(N)c1 |  | active: 5.62 µM |
| COc1ccc(CCNc2nc(N3CCCCC3)nc(N3CCCCC3)n2)cc1OC |  | inactive |
| Cc1ccc(S(=O)(=O)Nc2c(C(=O)O)[nH]c3ccccc23)c(C)c1 |  | inconclusive: 11.2 µM [inhibitor, single point] |
| CC(C)(C=O)C1=CC(=O)c2ccccc2C1=O |  | inconclusive: 28.2 µM [inhibitor, single point] |
| CCN(CC)S(=O)(=O)c1ccc(N2CCCC2)c(NS(=O)(=O)c2ccc(F)cc2)c1 |  | inconclusive: 22.4 µM [inhibitor, single point] |
| O=C1c2ccccc2NC(c2cnc3ccccc3n2)N1O (stereo not given) |  | inconclusive: 7.08 µM [inhibitor, full curve] |
| COc1ccc(-c2cc(C(F)(F)F)c3c(=O)n(-c4ccccc4)[nH]c3n2)cc1 |  | inconclusive: 31.6 µM [inhibitor, single point] |
| Nc1nc(N2CCN(c3ccc(Cl)cc3)CC2)n[nH]1 |  | inconclusive: 12.6 µM [inhibitor, partial curve] |
| Cc1cccc(NS(=O)(=O)c2c(C)nc3sccn3c2=O)c1C |  | inconclusive: 3.55 µM [inhibitor, partial curve] |
| Cc1cccc(NC(=S)N/N=C2\CC(C)(C)Oc3ccc(O)cc32)c1 |  | inconclusive: 7.94 µM [inhibitor, full curve] |
| CCCCc1ccc(NC(=O)Nc2cccnc2)cc1 |  | inactive |
| COc1cccc(C2NC(=O)c3sc(=S)n(-c4ccccc4)c3N2)c1 (stereo not given) |  | inconclusive: 39.8 µM [inhibitor, single point] |
| Nc1ccc2nc(-c3cccs3)[nH]c2c1 |  | inconclusive: 11.2 µM [inhibitor, partial curve] |
| Cn1cc(C(=O)N2CCc3ccccc3C2)c(=O)c2cc(S(=O)(=O)N3CCOCC3)ccc21 |  | inconclusive: 3.55 µM [inhibitor, full curve, poor fit] |
| CCc1ccccc1NC(=S)NCC1CCN(c2ccc(OC)cc2)C1 (stereo not given) |  | inconclusive: 11.2 µM [inhibitor, partial curve] |
| Cc1ccc2oc(C(=O)Nc3cccc(Cl)c3)cc(=O)c2c1 |  | inactive |
| CCc1ccc(S(=O)(=O)c2nnn3c2nc(Nc2cc(OC)ccc2OC)c2sccc23)cc1 |  | inactive |
| COC(=O)c1nn(-c2ccc3c(c2)CCN3C(C)=O)cc1O |  | inactive |
| CCOc1ccc(NC(=O)CC2SC(=O)N(c3ccccc3)C2=O)cc1 (stereo not given) |  | active: 19.8 µM |
